# Reference: PubChem BioAssay AID1347120 (National Center for Advancing Translational Sciences (NCATS), 2019)
# In all, about 390,000 compounds went through this assay and about 930 (0.24%) were called active. This list was built around the results that the source calls inconclusive (neither active nor inactive); the mix of calls is not that of the screen. The call rests on the fitted dose curve; in most records, active means well fitted activation curve with a large enough effect; inconclusive means small, poorly fitted or top-dose-only effect; inactive means no such curve, though single readings can be large or run the other way. Where the call is inconclusive, the potency comes from a doubtful curve fit.
# Experiment: qHTS for Suppressors of FUS Proteinopathy: Primary screen using FUS-linked yeast assay; further: nearly all actives have a fitted effect of over 55% in size
# Settings: S. cerevisiae FUS-expressing, OD600, 24 h; Potency: growth rescue; series mostly up to 76.6 µM
# Outline: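 Yeast FUS proteinopathy model; galactose-induced FUS (2%), starting OD 0.005. Cpds in dilution series, 24hr, 30C, 99% humidity. Abs 600 nm growth. Pos ctrl CP55940 (top 92uM final); neg ctrl DMSO.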
# Potency means the concentration at half of the fitted maximal effect; tags describe the fitted curve by direction and shape.
row,SMILES,Potency
1,CCOC(=O)[C@]12CCCC=C1N(Cc1ccc(Cl)cc1Cl)C(=O)[C@H](CC(=O)NCCCN1CCCC1=O)C2,"inconclusive: 11.2 µM [activator, partial curve, poor fit]"
2,CCCCCCCCN1C(=O)[C@@H](CC(=O)N2CCSCC2)C[C@@]2(C(=O)OC)C1=C[C@H](C(C)C)O[C@@H]2C1CC1,active: 4.47 µM
3,O=C(Nc1ccc(Br)cc1)OCCCN1CCC2(CCCCC2)C1=O,inactive
4,O=C(NCc1ccccc1)c1onc(CSc2ccc(F)cc2)c1C(=O)NCc1ccccc1,"inconclusive: 25.1 µM [activator, single point]"
5,O=C(c1ccc2nc(N3CCOCC3)sc2c1)N1CCC(Cc2ccccc2)CC1,"inconclusive: 28.2 µM [activator, single point]"
6,COc1ccc(N2C(=O)C3C(c4ccc(OC)cc4O)NC(Cc4ccccc4)(C(=O)O)C3C2=O)cc1 (stereo not drawn),"inconclusive: 2.24 µM [activator, full curve]"
7,Cc1cc(C)cc(NC(=O)C2CCCN(C(=O)c3cnn(-c4ccccc4)c3-n3cccc3)C2)c1 (stereo not drawn),"inconclusive: 25.1 µM [activator, single point]"
8,CCN1CCn2c3c(c4cccc(C)c42)CCCC31 (stereo not drawn),inactive
9,CCn1cc(S(=O)(=O)Nc2nc3ccc(OC)cc3s2)cn1,inactive
10,Cc1ccc(NC(=O)N2CCC(c3ccccc3)C2)cc1C (stereo not drawn),inactive
11,N#C/C=C1\n2c(nc3ccccc32)OC12CCCCC2,inactive
12,COc1ccc(CCN(Cc2cccs2)S(=O)(=O)c2ccc(C)c(C)c2)cc1OC,inactive
13,Cc1ccc(S(=O)(=O)N2C[C@@H](C)[C@]3(C2)[C@H](O)[C@H](OC(=O)NCc2ccccc2)C[C@H]2C(=O)N(c4ccccc4)C(=O)[C@H]23)cc1,"inconclusive: 31.6 µM [activator, single point]"
14,COc1ccc(C2=Nc3ccccc3NC(=O)C2N(CCCn2ccnc2)C(=O)c2cccc(S(C)(=O)=O)c2)cc1 (stereo not drawn),inactive
15,O=C(NC1CCCc2ccccc21)c1cccc(S(=O)(=O)N2CCN(c3ccccc3)CC2)c1 (stereo not drawn),inactive
16,Cc1cccc(C)c1NC(=O)C(c1ccncc1)n1c(=O)c(-c2cc3ccccc3[nH]2)nc2ccccc21 (stereo not drawn),"inconclusive: 10 µM [activator, partial curve, poor fit]"
17,Cc1ccc(N2C(=O)C3C(C2=O)N2C(c4cccs4)C4C(=O)N(c5ccc(C)cc5)C(=O)C4N2C3c2cccs2)cc1 (stereo not drawn),"inconclusive: 3.98 µM [activator, full curve]"
18,C=C(C)Cn1c(SCC(=O)O)nnc1-c1ccc(C(C)(C)C)cc1,"inconclusive: 12.6 µM [activator, partial curve, poor fit]"
19,CCOC(=O)C(C)NC(=O)C1CCN(c2ncnc3c2nc2n3CCCCC2)CC1 (stereo not drawn),inactive
20,Cc1cc(C)nc(N(C#N)Cc2ccc(Cl)cc2)n1,inactive
21,COc1ccc(F)cc1S(=O)(=O)Nc1cccc(-c2ccc(N3CCCCCC3)nn2)c1,"inconclusive: 35.5 µM [activator, single point]"

row,SMILES,Potency
1,Cc1ccc(N2CC(C(=O)N(C)CC(=O)Nc3ccc(Cl)c(C(F)(F)F)c3)CC2=O)cc1 (stereo not drawn),"inconclusive: 44.7 µM [activator, single point]"
2,O=C(Cn1c(-c2cccs2)cc2cc(Cl)ccc21)N1CCN(c2ccccc2F)CC1,inactive
3,CC(NC(=O)CN(c1ccc(Cl)cc1Cl)S(=O)(=O)c1ccccc1)c1ccccc1 (stereo not drawn),"inconclusive: 28.2 µM [activator, single point]"
4,Cc1ccc(-n2ncc(C(=O)NCCc3c[nH]c4ccccc34)c2C2CCN(C(=O)OC(C)(C)C)CC2)cc1C,"inconclusive: 25.1 µM [activator, partial curve, poor fit]"
5,COc1ccc(C2c3cc(OC)c(OC)cc3CCN2C2CC(=O)N(c3ccccc3)C2=O)cc1OC (stereo not drawn),"inconclusive: 31.6 µM [activator, single point]"
6,Nc1ccccc1SCc1csc(-c2ccc(Cl)cc2)n1,inactive
7,CC(C)C(C)(C#N)NC(=O)CSc1nc2scc(-c3ccco3)c2c(=O)n1-c1ccccc1 (stereo not drawn),"inconclusive: 35.5 µM [activator, partial curve]"
8,CCOC(=O)[C@@]12CN(C(=O)OC(C)(C)C)CC=C1N(Cc1ccc(OC)cc1)C(=O)[C@H]2CC(=O)NCc1ccc(OC)c(OC)c1,"inconclusive: 14.1 µM [activator, partial curve]"
9,CCOC(=O)c1ccc(NC(=O)c2c(NCc3cccs3)sc3c2CCCC3)cc1,"inconclusive: 28.2 µM [activator, partial curve, poor fit]"
10,COc1ccc([C@H]2CN(c3ccc(OC)cc3)C(=O)[C@@H]2CC(=O)Nc2ccccc2)cc1,"inconclusive: 28.2 µM [activator, single point]"
11,CCOc1ccc(C2Nc3c(C)cccc3-c3cc(C)nn32)cc1 (stereo not drawn),inactive
12,CCC(=O)N(CC)c1nc(-c2ccc(OC)cc2)cs1,inactive
13,COc1ccc(/C=N/Nc2cc(C)nc(N3CCOCC3)n2)cc1OC,inactive
14,O=C(CN1C(=O)c2ccccc2C1=O)OCC(=O)N1CCc2ccccc2C1,"inconclusive: 39.8 µM [activator, single point]"
15,COCOCCn1cc(CN2CCS(=O)(=O)N(Cc3ccc(-c4ccccc4)cc3)C(CC(C)C)C2=O)nn1 (stereo not drawn),"inconclusive: 25.1 µM [activator, single point]"
16,COc1ccc(Cl)cc1NC(=O)C1Cc2ccccc2CN1S(C)(=O)=O (stereo not drawn),"inconclusive: 25.1 µM [activator, partial curve, poor fit]"
17,COC(=O)CSc1nnc(-c2ccc(NS(=O)(=O)c3ccc(C(C)(C)C)cc3)cc2)o1,"inconclusive: 15.8 µM [activator, partial curve, poor fit]"
18,Cc1ccc(-n2c(SCC(=O)Nc3ccccc3-c3ccccc3)nnc2-c2ccccc2)cc1,"inconclusive: 14.1 µM [activator, partial curve, poor fit]"
19,COc1ccc(-c2cc(C(=O)Nc3ccc(S(=O)(=O)Nc4onc(C)c4C)cc3)c3ccccc3n2)cc1OC,"inconclusive: 35.5 µM [activator, partial curve, poor fit]"
20,CCOc1ccc(CNC(=O)c2ccc3nc(C(C)C)oc3c2)cc1,inactive
21,O=C(C1CCC(CNS(=O)(=O)c2cccc3cccnc23)CC1)N1CCc2ccccc21 (stereo not drawn),"inconclusive: 28.2 µM [activator, single point]"

row,SMILES,Potency
1,Cc1nc(-c2ccccn2)nc(N2CCOCC2)c1Cl,inactive
2,COc1ccc(OC)c(C2CC(c3c(-c4ccccc4)c4cc(Cl)ccc4[nH]c3=O)=NN2S(C)(=O)=O)c1 (stereo not drawn),inactive
3,Cn1c(=O)oc2cc(S(=O)(=O)N3CCN(CCO)CC3)ccc21,inactive
4,COc1cc2nc(C3CCC3)nc(N3CCN(c4ccccn4)CC3)c2cc1OC,inactive
5,Cc1ccc(S(=O)(=O)N(CC(=O)N2CCN(c3ccc(F)cc3)CC2)C2CCCCC2)cc1,"inconclusive: 25.1 µM [activator, partial curve, poor fit]"
6,O=C(CCc1ccccc1-c1ccccc1CCNC(=O)c1c(F)cccc1F)NCc1ccccc1,"inconclusive: 28.2 µM [activator, single point]"
7,Cc1ccccc1CN1C(=O)c2ccccc2Sc2ccc(C(=O)N3CCCC3)cc21,"inconclusive: 25.1 µM [activator, single point]"
8,CSc1ccccc1NC(=O)C1CC(c2ccccc2O)=NO1 (stereo not drawn),inactive
9,CCOc1ccc(CNCc2c(C(=O)O)n(Cc3ccc(C)cc3)c3cc(C)ccc23)cc1,"inconclusive: 28.2 µM [activator, single point]"
10,CC(=O)c1cccc(NC(=O)Nc2ccc3c(c2)N(C)C(=O)CS3)c1,inactive
11,CN(CCc1ccccc1)C(=O)c1ccc(NC(=O)Cc2ccc(NC(=O)C3CCCN(C(=O)C4CCC4)C3)cc2)cc1 (stereo not drawn),"inconclusive: 50.1 µM [activator, single point]"
12,Cc1ccc(C)n1NC(=O)c1cccc(Cl)c1,"inconclusive: 15.8 µM [activator, partial curve, poor fit]"
13,CC(C)C1C(=O)N(Cc2cn(CCC3OCCCO3)nn2)CCS(=O)(=O)N1Cc1ccc(-c2ccc(Cl)c(Cl)c2)cc1 (stereo not drawn),"inconclusive: 20 µM [activator, single point]"
14,COC(=O)[C@@]1(C(C)C)N=C(c2cc(OC)c(OC)c(OC)c2)[C@]2(O1)C(=O)N(Cc1cn(-c3ccccc3)nn1)c1cccc(Cl)c12,"inconclusive: 3.98 µM [activator, full curve]"
15,CC(C)N=c1scc(-c2cccs2)n1/N=C/c1ccc(O)c(O)c1O,"inconclusive: 35.5 µM [activator, single point]"
16,COc1cccc(-c2cc3nc(-c4ccccc4)cc(N4CCN(C(=O)c5ccoc5)CC4)n3n2)c1,"inconclusive: 15.8 µM [activator, partial curve]"
17,COc1ccc(CCNc2ncnc3c2c(-c2ccccc2)cn3-c2ccc(Cl)cc2)cc1OC,active: 14.1 µM
18,NC(=O)C1CCN(c2ccnc(Cl)n2)CC1,inactive
19,Cn1c(-c2nonc2N)nc2ccccc21,inactive
20,CC(Sc1nc2cc(Cl)ccc2s1)C(=O)Nc1cccc(S(=O)(=O)N2CCOCC2)c1 (stereo not drawn),"inconclusive: 8.91 µM [activator, partial curve]"
21,CCOC(=O)[C@@H]1[C@H]2COc3ccc(Br)cc3[C@@H]2N2C(=O)N(c3cccc(F)c3)C(=O)[C@]12C,"inconclusive: 31.6 µM [activator, single point]"
